The results in this text go back to article PMC6919601, “Identification of Plasmodium dipeptidyl aminopeptidase allosteric inhibitors by high throughput screening” (PLoS ONE, 2019).

Screen size: about 110,000 compounds; about 230 (0.21%) showed an effect of 50% or more. The list shows a part of the results.
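Note: 30 min substrate incubation versus DMSO and 10 µM JCP410 controls.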

This assay deals with DPAP1 (Plasmodium falciparum, UniProt Q8IIJ9). Description: primary screen, percent inhibition; read by cleavage of a fluorogenic dipeptide substrate; higher = more effect of the substance. Details: species or system P. falciparum D10 trophozoite lysates; single well.
Sequence of DPAP1 (Q8IIJ9 whole entry, looked up): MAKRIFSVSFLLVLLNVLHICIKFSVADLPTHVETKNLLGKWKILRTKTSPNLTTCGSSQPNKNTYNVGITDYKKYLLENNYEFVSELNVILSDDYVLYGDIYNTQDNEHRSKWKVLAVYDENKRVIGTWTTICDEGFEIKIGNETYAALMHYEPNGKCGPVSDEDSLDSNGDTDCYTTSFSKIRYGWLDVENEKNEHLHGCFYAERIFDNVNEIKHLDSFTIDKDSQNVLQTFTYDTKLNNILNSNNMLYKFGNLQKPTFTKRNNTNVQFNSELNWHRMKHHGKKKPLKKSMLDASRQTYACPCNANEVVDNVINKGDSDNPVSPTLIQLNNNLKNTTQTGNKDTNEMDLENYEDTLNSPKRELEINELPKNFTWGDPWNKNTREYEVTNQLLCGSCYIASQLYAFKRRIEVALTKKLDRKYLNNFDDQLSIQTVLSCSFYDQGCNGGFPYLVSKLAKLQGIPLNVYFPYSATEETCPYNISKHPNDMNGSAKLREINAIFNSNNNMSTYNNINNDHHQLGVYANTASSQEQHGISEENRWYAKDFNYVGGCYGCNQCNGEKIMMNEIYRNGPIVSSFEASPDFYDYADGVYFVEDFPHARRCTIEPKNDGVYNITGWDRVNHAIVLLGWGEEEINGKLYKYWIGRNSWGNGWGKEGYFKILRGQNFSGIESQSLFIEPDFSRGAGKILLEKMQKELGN
Take `O=C1NC(=S)NC(=O)C1=Cc1cn(Cc2ccc(Cl)cc2Cl)c2ccccc12`: the “% Inhibition @ 10 uM” value is 1.88%.
For `COc1ccc(C2OCC3C(c4ccc(OC)c(OC)c4)OCC23)cc1OC` (stereo not shown), the “% Inhibition @ 10 uM” value was 3%.
The result for `COc1ccc(-c2ccc(CO)cc2)cc1` reads -5.96%.
Next, `COc1cc(CCNCc2c(C(=O)O)c(C)n(Cc3ccc(C)cc3)c2C)cc(OC)c1OC`: -1.92%; `Cc1ccc(-n2c(=O)[nH]c3ccc(Cl)cc3c2=O)cc1`: -1.61%; `CC1CCCC(NC(=O)C2CCN(C(=O)N(C)C)CC2)C1C` (stereo not shown): -1.34%.
Regarding `CCCN1C(=O)CN(C2CCCCCC2)C(=O)C1c1ccc(C)cc1` (stereo not shown), the “% Inhibition @ 10 uM” value is recorded as -0.519%.
Next, `Cc1c(CNCCCSC2CCCCC2)c(C(=O)O)c(C)n1Cc1ccccc1`: 6.02%.
The result for `Cc1ccc(NC(=O)CN(c2cccc(Cl)c2C)S(C)(=O)=O)c(C)c1` reads -0.496%; that for `COc1ccc(S(=O)(=O)N(CC(=O)Nc2cccc(OC)c2)c2ccccc2)cc1`, 3.66%; that for `c1ccc(Nc2nc(-c3ccccn3)cs2)cc1`, -1.37%.
Turning to `COc1cc(CN2CCN(c3ccccc3F)CC2)cc(Br)c1O`, the “% Inhibition @ 10 uM” value came to 3.16%.
Next, `CCOc1ccc(/C=C/C(O)=C2/C(=O)NC3(C)CC2c2ccccc2O3)cc1OC` (stereo not shown): -3.21%; `COc1ccc(C(=O)Sc2nc(C)cc(C)n2)cc1`: 54.6%.
The result for `N#Cc1nc2c(-c3nc4ccccc4s3)c(N)n(Cc3ccccc3)c2nc1C#N` reads 11.9%; that for `CC[C@@H](C)[C@H](NC(=O)Nc1cccc(OC)c1)C(=O)N[C@@H](CCc1ccccc1)C(=O)COCc1ccccc1`, -7.36%; that for `CS(=O)(=O)N(CC(=O)Nc1ccc(C(N)=O)cc1)c1cccc(Cl)c1`, -0.872%.
For `Fc1ccc(N2CCN(Cc3cccs3)CC2)cc1`, the “% Inhibition @ 10 uM” value is listed as -0.192%.
With `CC1=Nc2nc3ccccc3n2C(c2cccnc2)/C1=C(/O)OC1CCCCC1` (stereo not shown), the “% Inhibition @ 10 uM” value is -4.58%.
Consider `Clc1cccc(CN2CCC(N3CCCCC3)CC2)c1`, for which the “% Inhibition @ 10 uM” value is reported as 3.15%.
As to `CCOCCCNS(=O)(=O)c1ccc(-c2cc(C(F)(F)F)no2)s1`, the “% Inhibition @ 10 uM” value is recorded as 23.6%.
As for `Cc1ccnc(NC(=O)CCc2ccccc2)c1`, the “% Inhibition @ 10 uM” value was -6.91%.
Turning to `CCc1ccccc1NC(=O)C(C(C)C)N1C(=O)c2ccccc2C1=O` (stereo not shown), the “% Inhibition @ 10 uM” value is given as -6.68%.
Consider `Oc1cccc(CN2CCN(c3ccc(Cl)cc3)CC2)c1`, for which the “% Inhibition @ 10 uM” value is 0.605%.
With `O=C(COc1cc(Cl)ccc1Cl)NC(Cc1c[nH]c2ccccc12)C(=O)O` (stereo not shown), the “% Inhibition @ 10 uM” value was found to be 3.27%.
Next, `CC1=CCC2C(=O)N(CCc3c[nH]c4ccccc34)C(=O)C2C1` (stereo not shown): -2.14%; `CCOC(=O)c1c(C)[nH]c(C)c1S(=O)(=O)NC(C)Cc1ccco1` (stereo not shown): -3.23%.
On to `COc1cccc(NC(=O)CN(Cc2ccc(C)cc2)S(=O)(=O)c2ccc(C)cc2)c1`, for which the “% Inhibition @ 10 uM” value was -4.63%.
Regarding `CCOC(=O)c1cnc2c(-c3ccccc3)c(-c3ccccc3)nn2c1C`, the “% Inhibition @ 10 uM” value was 1.31%.
On to `C=CCn1c(SCC(=O)NCCCO)nc2sc(C)c(C)c2c1=O`, for which the “% Inhibition @ 10 uM” value was -1.37%.
Regarding `CN(C)c1ccnc(SCC(=O)Nc2ccccc2)c1C#N`, the “% Inhibition @ 10 uM” value was 3.47%.
Next, `O=C(c1cccs1)N1N=C(c2cccs2)CC1c1ccco1` (stereo not shown): -7.31%; `Cc1cc(=O)oc2c3c(ccc12)OCN(Cc1ccccc1)C3`: 1.02%.
As for `O=C(Nc1ccc(Cl)cc1)C(O)c1ccccc1` (stereo not shown), the “% Inhibition @ 10 uM” value is recorded as -3.77%.
Next, `COc1ccc(Br)cc1CNC(=O)c1noc2c1CCCC2`: -1.7%; `O=C(/C=C/c1ccccc1)N1CCC(c2ccccc2)C1` (stereo not shown): -1.33%; `COc1ccc(CN(C)C2CCN(C)CC2)cc1`: -3.65%.
The result for `CC1CCC2C(=O)N(CNc3ccc(Cl)cc3)C(=O)C2C1` (stereo not shown) reads 2.7%; that for `Cc1ccc(C(C)C)cc1OCC(O)Cn1c(C)nc2ccccc21` (stereo not shown), 23.1%.
Turning to `O=C(NCc1cccnc1)c1sc2cc(F)ccc2c1Cl`, the “% Inhibition @ 10 uM” value is -2.56%.
For the compound `CCCn1c2ccccc2c2cnn(CC(=O)NCc3ccc4c(c3)OCO4)c(=O)c21`, the “% Inhibition @ 10 uM” value is on record as -0.238%.
Next, `O=C(Cn1c(NCCCO)nc2ccccc21)c1ccc(Cl)c(Cl)c1`: 15.6%; `COc1cc(-c2nc3cc(Br)c(C)nc3[nH]2)ccc1O`: 15.9%.
Next, `O=C1C2CCCCN2C(=O)N1CCN1CCN(c2ccc(F)cc2)CC1` (stereo not shown): 1.39%.
The result for `CC(=O)N1CCN(C2CC(=O)N(c3ccccc3)C2=O)CC1` (stereo not shown) reads 4.3%; that for `CC(C)Cn1c(=O)c2sccc2n2c(CCCC(=O)NC(C)CCc3ccccc3)nnc12` (stereo not shown), -1.04%.
In the case of `CCOC(=O)c1c(S(=O)(=O)NCCCOC(C)C)c(C)n(C)c1C`, the “% Inhibition @ 10 uM” value was determined as 0.802%.
Regarding `COc1ccccc1C(=O)Nc1nc2c(C)cc(C)cc2s1`, the “% Inhibition @ 10 uM” value was -5.94%.
`Cc1ccc(-c2csc(Nc3ccc(Cl)c(Cl)c3)n2)cc1C`: the “% Inhibition @ 10 uM” value is 0.345%.
The result for `O=C(c1nc2nc(-c3ccccc3)cc(C(F)(F)F)n2n1)N1CCN(Cc2ccccc2)CC1` reads -1.5%; that for `O=C(NCCC1=CCCCC1)c1ccc(CS(=O)(=O)Cc2ccc(Cl)cc2)o1`, 0.387%.
The result for `CC1(C)Cc2nc3sc4c(O)ncnc4c3cc2CO1` reads 0.884%; that for `Cc1nn(CC(=O)NCc2cccnc2)c(=O)c2cc3sccc3n12`, -5.19%; that for `CC(=O)c1cccc(NC(=O)c2cc(F)c(Cl)nc2Cl)c1`, 1.93%.
Consider `S=c1nc(-c2ccccc2)n(-c2ccccc2)c2c1CCCC2`, for which the “% Inhibition @ 10 uM” value turned out to be 3.65%.
Next, `CC(C)c1ccc(NS(=O)(=O)c2ccc([N+](=O)[O-])cc2)cc1`: -1.05%; `O=C(Nc1ccc(S(=O)(=O)N2CCCCC2)cc1)c1ccc(-c2ccccc2)cc1`: -1.17%.
For `CN1CCCN(Cc2coc3c(Cl)cc(Cl)cc3c2=O)CC1`, the “% Inhibition @ 10 uM” value was -7.56%.
The result for `CCS(=O)(=O)c1nc(S(=O)(=O)c2ccc(C)cc2)c(N2CCN(CCO)CC2)s1` reads -0.522%; that for `CCOc1cc(-n2cncn2)nc(-c2ccccc2)n1`, 3.53%.
For the compound `COC(=O)c1ccc(CN(C)C2CCN(C)CC2)cc1`, the “% Inhibition @ 10 uM” value is reported as -1.64%.
For the compound `CC[C@H](C)[C@H](NC(=O)N1CCC(N2CCCCC2)CC1)C(=O)N[C@@H](CCc1ccccc1)C(=O)CO`, the “% Inhibition @ 10 uM” value worked out at 1.61%.
Next, `COc1ccc(C2=NN(CCc3ccccn3)C(=O)C2)cc1`: -4.06%; `Cc1ccc2[nH]c3c(N4CCCCC4)ncnc3c2c1`: -7.23%.
